{"source": "the RNAGym collection of RNA variant scans (doi:10.7554/elife.90254)", "parents": {"B1": {"name": "LINE1-full (parent)", "chain": "UACGUAGGUGGUUUUCCCCUGAUAGUGCUAAGGGGGCCUGGAAGUUUGGACUGGGCAGAGCUCAACACAGCGUGGCAAAGUGGCUGUGGCUAGACUGCCUCUCUGGAUUCCUCGUCACUCAGCAGGGCAUCUCUGAGAGAAAUGCC"}}, "note": "Read counts are not given, so values of variants with three or more changes are uncertain."}
{"variants_of": "B1", "experiment": "self-cleavage, relative activity (ratio to wild type); higher = more cleavage; in vitro, sequencing; the parent is a self-cleaving ribozyme"}
{"variant": "C51U A57G A129G", "self-cleavage": 0.8}
{"variant": "U47C U52C U132C", "self-cleavage": 2.67}
{"variant": "U47C U62A A94U A107G A136G", "self-cleavage": 0}
{"variant": "U47A G74A A124G", "self-cleavage": 0.61}
{"variant": "U47A A57U G97A A117C A124G", "self-cleavage": 0.03}
{"variant": "C51A U73C A77G", "self-cleavage": 1.19}
{"variant": "U47C A65U U134C", "self-cleavage": 0.36}
{"variant": "A50G U73A U130C A136G", "self-cleavage": 0.89}
{"variant": "A50G A92G U112A", "self-cleavage": 0.46}
{"variant": "U46C U134A C145A", "self-cleavage": 1.27}
{"variant": "U46C A94U G106U", "self-cleavage": 0.31}
{"variant": "A50G U87A U130G", "self-cleavage": 0.15}
{"variant": "U46C A124G U132C", "self-cleavage": 1.5}
{"variant": "G49A G82A U96C A141G", "self-cleavage": 0.07}
{"variant": "U47C U108C U134C", "self-cleavage": 2.55}
{"variant": "U46C U109C A129G A141G", "self-cleavage": 2.3}
{"variant": "G49U A59G U62C U73C U87C", "self-cleavage": 0}
{"variant": "U47A U85C G93A", "self-cleavage": 0.11}
{"variant": "G48A C51A A79G U85C", "self-cleavage": 0.03}
{"variant": "U47A A67G A94U", "self-cleavage": 0.02}
{"variant": "U47A U100C U134G", "self-cleavage": 2.38}
{"variant": "A50U A69G C111U", "self-cleavage": 0.4}
{"variant": "U46C A77G U119C", "self-cleavage": 1.64}
{"variant": "U47A A92U A129U A142G", "self-cleavage": 0.66}
{"variant": "U47C U96A U112C", "self-cleavage": 0.04}
{"variant": "U47A A50G G53A U87C U96C U115A U132C", "self-cleavage": 0.21}
{"variant": "U46C U91C A136G A141G", "self-cleavage": 0.92}
{"variant": "U47A A77G U130A A138G", "self-cleavage": 1.41}
{"variant": "U46C G125A A129G", "self-cleavage": 2.43}
{"variant": "G48A A78U U85C U108C", "self-cleavage": 0.18}
{"variant": "U47A A69G A77U A79U", "self-cleavage": 0.47}
{"variant": "G49A A50G A64G A79G", "self-cleavage": 0.26}
{"variant": "A50U C131G U134G", "self-cleavage": 1.49}
{"variant": "A50G A57G C63U", "self-cleavage": 0.28}
{"variant": "U47A A50U U87A C123U", "self-cleavage": 0.05}
{"variant": "A50U A69U U73A G114A", "self-cleavage": 0.04}
{"variant": "A50U U73C A136G", "self-cleavage": 1.73}
{"variant": "U47C U109A A117C", "self-cleavage": 1.22}
{"variant": "U46C U62C U109C", "self-cleavage": 0}
{"variant": "U47C U108A C131U", "self-cleavage": 1.73}
{"variant": "U47C A78G U81A", "self-cleavage": 0.56}
{"variant": "U47A U52C A92G U108C", "self-cleavage": 0.42}
{"variant": "U47A G93A U132G", "self-cleavage": 0.03}
{"variant": "U47C A59G A121G", "self-cleavage": 0}
{"variant": "U47A A57G U134C", "self-cleavage": 0.78}
{"variant": "G48U U100C U119G", "self-cleavage": 2.44}
{"variant": "U47G U85C U143C", "self-cleavage": 0.29}
{"variant": "C51U A117G A140U U143C", "self-cleavage": 1.94}
{"variant": "A50G G58C A65G U134A", "self-cleavage": 0.2}
{"variant": "U47G U62A U81C", "self-cleavage": 0}
{"variant": "G49A A57G A69G U115C", "self-cleavage": 0.18}
{"variant": "U46C A79G G106U A141G A142G", "self-cleavage": 1.79}
{"variant": "G48A U52A U96C", "self-cleavage": 0.1}
{"variant": "U46C C113G A141G", "self-cleavage": 1.27}
{"variant": "A50G U109G U132C", "self-cleavage": 0}
{"variant": "U47C U52C U73A A78G U100A", "self-cleavage": 0.59}
{"variant": "G49U A79U G93U", "self-cleavage": 0.04}
{"variant": "A50G C120U A138G", "self-cleavage": 1.62}
{"variant": "G49U A79G U119A U134C", "self-cleavage": 1.25}
{"variant": "U46C U85A G97A", "self-cleavage": 0.18}
{"variant": "A50G U73C A121U", "self-cleavage": 0}
{"variant": "A50G U73C A121C", "self-cleavage": 0}
{"variant": "U46C U85C A117U A121U U134G A136G", "self-cleavage": 0.77}
{"variant": "C51U A65G U100C", "self-cleavage": 0.05}
{"variant": "A50U G72C U104A U119C", "self-cleavage": 0.6}
{"variant": "U46C U73C C98U", "self-cleavage": 1.01}
{"variant": "A50C U73C C113A", "self-cleavage": 1.84}
{"variant": "U46C A77U U112C G139U", "self-cleavage": 1.39}
{"variant": "U47C U73A G125A", "self-cleavage": 1.78}
{"variant": "U47A U109C A124G U130A", "self-cleavage": 1.53}
{"variant": "U47C U132C A140G", "self-cleavage": 0.68}
{"variant": "A50G A77U G127U", "self-cleavage": 0.81}
{"variant": "U47G A67G A124U A142G", "self-cleavage": 0.28}
{"variant": "U46C A77G U134C", "self-cleavage": 1.81}
{"variant": "U46C A79G U134C", "self-cleavage": 0}
{"variant": "A50G A69G U102A", "self-cleavage": 0}
{"variant": "A50C U62C U115A", "self-cleavage": 0.07}
{"variant": "G49A U96C U104C A136U", "self-cleavage": 0.17}
{"variant": "U46C U119G A136G", "self-cleavage": 0.68}
{"variant": "A50G U109A A140G", "self-cleavage": 0.51}
{"variant": "U47A U81A U85A U96A U115C", "self-cleavage": 0.05}
{"variant": "U47A A57G G93A U104G U112C", "self-cleavage": 0.16}
{"variant": "A50G A59U C98U A136U A138G", "self-cleavage": 0.56}
{"variant": "U46C U62C U143G", "self-cleavage": 0}
{"variant": "U47C G93A U130C", "self-cleavage": 0.05}
{"variant": "U47A A64C A121U A142U", "self-cleavage": 0.23}
{"variant": "A50G U115C U130C", "self-cleavage": 1.67}
{"variant": "U47G U85A G137A", "self-cleavage": 0.09}
{"variant": "U46C G54A A77G A79G U91C", "self-cleavage": 0}
{"variant": "U47C U52C A141U", "self-cleavage": 2.13}
{"variant": "U46C U85C U130C", "self-cleavage": 0}
{"variant": "U47C A57G U81A A140G", "self-cleavage": 2.55}
{"variant": "A50G A138G A141G", "self-cleavage": 0.44}
{"variant": "A50C A107G G114A A124C A141G", "self-cleavage": 2.17}
{"variant": "U46C C66U G72C", "self-cleavage": 0.04}
{"variant": "U47C A50U G80C U112A", "self-cleavage": 0.23}
{"variant": "U47A U81G U85C", "self-cleavage": 0.12}
{"variant": "G48A U87G U96A A141G", "self-cleavage": 0.05}
{"variant": "U46C U62A A136G", "self-cleavage": 0.04}
{"variant": "A50U U87C C123U", "self-cleavage": 0.12}
{"variant": "G48A A79U U85C", "self-cleavage": 0.09}
{"variant": "A50U U81C A94U C98A", "self-cleavage": 0.13}
{"variant": "C51U A79G A141G", "self-cleavage": 2.03}
{"variant": "A50G A65G A142G", "self-cleavage": 0}
{"variant": "U47G A69U U104G", "self-cleavage": 0.37}
{"variant": "U46C U73A U119A A124G U143A", "self-cleavage": 2.02}
{"variant": "U46G A65G C90A U130A A140G", "self-cleavage": 0.04}
{"variant": "U47C A117G U134A U143C", "self-cleavage": 1.71}
{"variant": "U47C U100C U134A", "self-cleavage": 1.84}
{"variant": "U46C G114U A138G", "self-cleavage": 0.76}
{"variant": "U46C U119C A124U", "self-cleavage": 1.9}
{"variant": "A50G U81A U85A A117U", "self-cleavage": 0.04}
{"variant": "C51A U73C U91C U130C A140G", "self-cleavage": 1.02}
{"variant": "G49A U91C A140U", "self-cleavage": 0.44}
{"variant": "U47C A94G U96A", "self-cleavage": 0.3}
{"variant": "A50G C90A U96A", "self-cleavage": 0.02}
{"variant": "A50U A57G A77G U109A", "self-cleavage": 0.87}
{"variant": "U47A A59G C71U A129G", "self-cleavage": 0}
{"variant": "G48A A59U U91A A129G", "self-cleavage": 0.28}
{"variant": "A50G U62C A78G U143C", "self-cleavage": 0}
{"variant": "A50U G72A A117U U143A", "self-cleavage": 1.06}
{"variant": "A50G U102C U112A", "self-cleavage": 1.53}
{"variant": "A50G A69G U109A", "self-cleavage": 1.2}
{"variant": "A50U A57G A59G", "self-cleavage": 0.14}
{"variant": "U46C U102A U119C U134A", "self-cleavage": 1.79}
{"variant": "U47C U112C A141G", "self-cleavage": 1.19}
{"variant": "U47C A50C A65U A141G", "self-cleavage": 0}
{"variant": "U47A A78G U130C", "self-cleavage": 1.3}
{"variant": "U46C U87C G139A", "self-cleavage": 0.63}
{"variant": "U46G A79G U87C G106A U109C", "self-cleavage": 0}
{"variant": "U47G A77U U100C C131A", "self-cleavage": 1.58}
{"variant": "U47A G53A A59G U134C", "self-cleavage": 0.11}
{"variant": "U46C A77U U91C A121U", "self-cleavage": 1.31}
{"variant": "U46C U52C A59U U96C", "self-cleavage": 0}
{"variant": "A50G A129U A141G", "self-cleavage": 0.95}
{"variant": "A50G U112A A141G", "self-cleavage": 0}
{"variant": "A50G A65U U81C", "self-cleavage": 0}
{"variant": "U47A A117U U134A", "self-cleavage": 1.16}
{"variant": "A50G A64U A77G", "self-cleavage": 0.95}
{"variant": "A50G U104C U109C C123U", "self-cleavage": 0.88}
{"variant": "A50U A79G U100C", "self-cleavage": 0.2}
{"variant": "U46C A78G G88A U134A", "self-cleavage": 0.05}
{"variant": "U46C U73A A78G G86A", "self-cleavage": 0.06}
{"variant": "U47A U87C C98U", "self-cleavage": 0.03}
{"variant": "U46C U102C A129G U134C", "self-cleavage": 0.57}
{"variant": "U47C U73C A138G", "self-cleavage": 2.06}
{"variant": "A50G A65G U130C A141G", "self-cleavage": 0}
{"variant": "A50G A94U U102A A124G C131U", "self-cleavage": 0.56}
{"variant": "U47A U87C A136G A140U", "self-cleavage": 0.07}
{"variant": "A50G U73A U119C", "self-cleavage": 0}
{"variant": "U47C U104A U115C", "self-cleavage": 0.25}
{"variant": "U46C A78U G114A", "self-cleavage": 2.55}
{"variant": "U47C U62C G127U A141G", "self-cleavage": 0.04}
{"variant": "U47C G114A A142G", "self-cleavage": 1.4}
{"variant": "U47A A59G U73C", "self-cleavage": 0}
{"variant": "U46C G114A A136G", "self-cleavage": 1.25}
{"variant": "U47C A117C U143C", "self-cleavage": 1.44}
{"variant": "G48A A129U C145U", "self-cleavage": 1}
{"variant": "U47C U96A A141G", "self-cleavage": 0.19}
{"variant": "U47A C128U A136G", "self-cleavage": 1.74}
{"variant": "A50U G53A A136U", "self-cleavage": 0.22}
{"variant": "U47A U87C A129U", "self-cleavage": 0.21}
{"variant": "U46C U52A A69G A124C", "self-cleavage": 0.61}
{"variant": "G49A U81C U87C", "self-cleavage": 0.07}
{"variant": "U47C A78G U87A", "self-cleavage": 0.07}
{"variant": "U47G U102A G105A", "self-cleavage": 0.22}
{"variant": "C51A U100A A124C", "self-cleavage": 1.75}
